Experimental data reported in publication PMC12820563, “FoxP3 forms a head-to-head dimer in vivo and stabilizes its multimerization on adjacent microsatellites”.
This is one part of the list.

What follows are sequences tested against T1, MBP-FoxP1dN (Mus musculus, UniProt P58462 326-579) (assay: PD-seq (MBP pull-down with sequencing); 20 mM Tris-HCl pH 7.5, 100 mM NaCl, 1.5 mM MgCl2, 0.4 uM protein, 0.1 uM dsDNA library, 30 min, room temperature, amylose pull-down; high values mean tight binding). Conditions: protein: recombinant; tags: His6-MBP; chain copies: 2; dsDNA, one strand shown.
T1 sequence: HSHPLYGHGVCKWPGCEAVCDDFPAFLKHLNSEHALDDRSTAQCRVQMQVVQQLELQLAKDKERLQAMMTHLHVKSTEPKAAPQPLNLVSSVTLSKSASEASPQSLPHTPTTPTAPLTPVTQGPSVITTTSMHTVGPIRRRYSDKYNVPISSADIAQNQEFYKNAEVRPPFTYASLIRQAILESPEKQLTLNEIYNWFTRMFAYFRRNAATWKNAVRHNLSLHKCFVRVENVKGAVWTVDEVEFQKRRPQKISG
Method in brief: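 Binding is reads-per-million enrichment of pull-down over input, with replicates pooled. It comes from 30 min room-temperature incubation in Tris pH 7.5 buffer with NaCl and MgCl2 of 0.4 µM His6-MBP-tagged, N-terminally truncated mouse FoxP3 or FoxP1 fragment from E. coli with 0.1 µM Klenow-filled degenerate double-stranded DNA library, followed by amylose resin capture, three washes and Illumina sequencing of the released DNA.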

Sequence | binding signal
GATGATTGTTCTCCCAGCTGATGAATTGCTAGCCTCGAGTAAACAAATTTTCCTAATCTTTCTGTTCAAGCGCCATCTAC | 1 RPM ratio (pull-down/input)
GATGATTGTTCTCCCAGCTGATGAATTACGCTTATCGAGTAAACAAATTTTCCTAATCTTTCTGTTCAAGCGCCATCTAC | 1.16 RPM ratio (pull-down/input)
GATGATTGTTCTCCCAGCTGATGAATTCCATTGGTCGAGTAAACAAATTTTCCTAATCTTTCTGTTCAAGCGCCATCTAC | 0.762 RPM ratio (pull-down/input)
GATGATTGTTCTCCCAGCTGATGAATTGACCAAGTCGAGTAAACAAATTTTCCTAATCTTTCTGTTCAAGCGCCATCTAC | 0.87 RPM ratio (pull-down/input)
GATGATTGTTCTCCCAGCTGATGAATTCATTTATTCGAGTAAACAAATTTTCCTAATCTTTCTGTTCAAGCGCCATCTAC | 1.01 RPM ratio (pull-down/input)
GATGATTGTTCTCCCAGCTGATGAATTTGCGGTGTCGAGTAAACAAATTTTCCTAATCTTTCTGTTCAAGCGCCATCTAC | 0.989 RPM ratio (pull-down/input)
GATGATTGTTCTCCCAGCTGATGAATTCTATCCGTCGAGTAAACAAATTTTCCTAATCTTTCTGTTCAAGCGCCATCTAC | 0.9 RPM ratio (pull-down/input)
GATGATTGTTCTCCCAGCTGATGAATTATCCGTCTCGAGTAAACAAATTTTCCTAATCTTTCTGTTCAAGCGCCATCTAC | 0.857 RPM ratio (pull-down/input)
GATGATTGTTCTCCCAGCTGATGAATTAAAGGCCTCGAGTAAACAAATTTTCCTAATCTTTCTGTTCAAGCGCCATCTAC | 0.877 RPM ratio (pull-down/input)
GATGATTGTTCTCCCAGCTGATGAATTCAGCATCTCGAGTAAACAAATTTTCCTAATCTTTCTGTTCAAGCGCCATCTAC | 1.08 RPM ratio (pull-down/input)
GATGATTGTTCTCCCAGCTGATGAATTCGAAGGATCGAGTAAACAAATTTTCCTAATCTTTCTGTTCAAGCGCCATCTAC | 0.845 RPM ratio (pull-down/input)
GATGATTGTTCTCCCAGCTGATGAATTCATACCATCGAGTAAACAAATTTTCCTAATCTTTCTGTTCAAGCGCCATCTAC | 0.999 RPM ratio (pull-down/input)
GATGATTGTTCTCCCAGCTGATGAATTCGCTACGTCGAGTAAACAAATTTTCCTAATCTTTCTGTTCAAGCGCCATCTAC | 0.968 RPM ratio (pull-down/input)
GATGATTGTTCTCCCAGCTGATGAATTTACAGTGTCGAGTAAACAAATTTTCCTAATCTTTCTGTTCAAGCGCCATCTAC | 1.24 RPM ratio (pull-down/input)
GATGATTGTTCTCCCAGCTGATGAATTTTAAGTTTCGAGTAAACAAATTTTCCTAATCTTTCTGTTCAAGCGCCATCTAC | 0.926 RPM ratio (pull-down/input)
GATGATTGTTCTCCCAGCTGATGAATTTGAAGCTTCGAGTAAACAAATTTTCCTAATCTTTCTGTTCAAGCGCCATCTAC | 0.899 RPM ratio (pull-down/input)

Sequence | binding signal
GATGATTGTTCTCCCAGCTGATGAATTATGTATCTCGAGTAAACAAATTTTCCTAATCTTTCTGTTCAAGCGCCATCTAC | 1.45 RPM ratio (pull-down/input)
GATGATTGTTCTCCCAGCTGATGAATTTGTGATGTCGAGTAAACAAATTTTCCTAATCTTTCTGTTCAAGCGCCATCTAC | 1.47 RPM ratio (pull-down/input)
GATGATTGTTCTCCCAGCTGATGAATTACCCGCTTCGAGTAAACAAATTTTCCTAATCTTTCTGTTCAAGCGCCATCTAC | 0.968 RPM ratio (pull-down/input)
GATGATTGTTCTCCCAGCTGATGAATTGAACCGCTCGAGTAAACAAATTTTCCTAATCTTTCTGTTCAAGCGCCATCTAC | 0.819 RPM ratio (pull-down/input)
GATGATTGTTCTCCCAGCTGATGAATTGTTCCAGTCGAGTAAACAAATTTTCCTAATCTTTCTGTTCAAGCGCCATCTAC | 1.03 RPM ratio (pull-down/input)
GATGATTGTTCTCCCAGCTGATGAATTGGTTCTGTCGAGTAAACAAATTTTCCTAATCTTTCTGTTCAAGCGCCATCTAC | 0.898 RPM ratio (pull-down/input)
GATGATTGTTCTCCCAGCTGATGAATTAAACAGGTCGAGTAAACAAATTTTCCTAATCTTTCTGTTCAAGCGCCATCTAC | 1.21 RPM ratio (pull-down/input)
GATGATTGTTCTCCCAGCTGATGAATTAGTTTGCTCGAGTAAACAAATTTTCCTAATCTTTCTGTTCAAGCGCCATCTAC | 1.03 RPM ratio (pull-down/input)
GATGATTGTTCTCCCAGCTGATGAATTAGTTAGATCGAGTAAACAAATTTTCCTAATCTTTCTGTTCAAGCGCCATCTAC | 0.984 RPM ratio (pull-down/input)
GATGATTGTTCTCCCAGCTGATGAATTTGTGAGATCGAGTAAACAAATTTTCCTAATCTTTCTGTTCAAGCGCCATCTAC | 0.937 RPM ratio (pull-down/input)
GATGATTGTTCTCCCAGCTGATGAATTTAAATCCTCGAGTAAACAAATTTTCCTAATCTTTCTGTTCAAGCGCCATCTAC | 0.844 RPM ratio (pull-down/input)
GATGATTGTTCTCCCAGCTGATGAATTACCCCCCTCGAGTAAACAAATTTTCCTAATCTTTCTGTTCAAGCGCCATCTAC | 0.93 RPM ratio (pull-down/input)
GATGATTGTTCTCCCAGCTGATGAATTCACGTTATCGAGTAAACAAATTTTCCTAATCTTTCTGTTCAAGCGCCATCTAC | 1.12 RPM ratio (pull-down/input)
GATGATTGTTCTCCCAGCTGATGAATTGGCTGAATCGAGTAAACAAATTTTCCTAATCTTTCTGTTCAAGCGCCATCTAC | 0.911 RPM ratio (pull-down/input)
GATGATTGTTCTCCCAGCTGATGAATTCGGATCGTCGAGTAAACAAATTTTCCTAATCTTTCTGTTCAAGCGCCATCTAC | 0.863 RPM ratio (pull-down/input)
